# Results from paper PMC4336329 (PLoS ONE, 2015).
# Screen size: about 310,000 compounds; about 14,000 (4.5%) showed an effect of 50% or more. Effects have a minus sign here. The list shows a part of the results.
# Target: human ether-à-go-go-related gene (hERG) potassium channel (human, UniProt Q12809)
# Assay: primary screen, population patch clamp on CHO cells stably expressing hERG
# 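Also: peak tail current of the secondary pulse compared with the same well before compound.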
# human ether-à-go-go-related gene (hERG) potassium channel, sequence (Q12809 whole entry, looked up): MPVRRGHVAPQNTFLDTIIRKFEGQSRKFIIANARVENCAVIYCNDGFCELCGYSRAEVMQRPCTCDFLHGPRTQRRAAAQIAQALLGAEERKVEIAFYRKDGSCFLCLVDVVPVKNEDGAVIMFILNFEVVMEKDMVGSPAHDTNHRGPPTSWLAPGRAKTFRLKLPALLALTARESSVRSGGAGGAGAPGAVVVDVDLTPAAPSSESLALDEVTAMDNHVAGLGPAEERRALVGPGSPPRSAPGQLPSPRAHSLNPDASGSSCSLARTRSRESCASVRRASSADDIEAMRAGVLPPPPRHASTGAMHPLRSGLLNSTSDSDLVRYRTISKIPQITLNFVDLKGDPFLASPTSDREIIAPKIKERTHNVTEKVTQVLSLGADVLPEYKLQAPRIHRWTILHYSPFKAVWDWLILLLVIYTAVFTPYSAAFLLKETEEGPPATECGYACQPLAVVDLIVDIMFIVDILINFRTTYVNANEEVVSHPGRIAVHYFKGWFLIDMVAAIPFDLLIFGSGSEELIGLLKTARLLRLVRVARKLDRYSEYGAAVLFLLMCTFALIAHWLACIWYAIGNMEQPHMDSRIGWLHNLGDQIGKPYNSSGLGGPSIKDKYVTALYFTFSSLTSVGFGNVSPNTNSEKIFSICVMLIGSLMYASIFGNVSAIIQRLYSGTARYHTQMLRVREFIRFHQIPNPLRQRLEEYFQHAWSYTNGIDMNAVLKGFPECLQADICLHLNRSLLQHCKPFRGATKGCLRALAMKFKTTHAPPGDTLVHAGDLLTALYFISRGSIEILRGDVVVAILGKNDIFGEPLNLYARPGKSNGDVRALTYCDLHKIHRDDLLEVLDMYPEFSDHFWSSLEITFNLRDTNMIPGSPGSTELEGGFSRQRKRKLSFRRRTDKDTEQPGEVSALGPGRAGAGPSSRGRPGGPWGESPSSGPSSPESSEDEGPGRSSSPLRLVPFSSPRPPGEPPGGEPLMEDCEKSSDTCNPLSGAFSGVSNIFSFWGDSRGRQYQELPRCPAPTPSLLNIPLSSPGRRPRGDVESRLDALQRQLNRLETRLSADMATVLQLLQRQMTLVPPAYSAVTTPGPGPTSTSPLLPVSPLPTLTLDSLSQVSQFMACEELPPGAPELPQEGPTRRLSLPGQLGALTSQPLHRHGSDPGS
row,Compound,"hERG current change (%, negative = inhibition) at 10uM"
1,Cc1c(Br)c([N+](=O)[O-])nn1C(C)C(=O)NCC1CCCO1 (stereo not shown),1.09%
2,COc1ccc(OC)c(C2NC(=O)NC(C)=C2C(=O)Nc2ccc(C)cc2)c1 (stereo not shown),5.98%
3,CCOc1ccc(C(CCc2ccccc2)NC(=O)c2ccccc2)cc1OCC (stereo not shown),-19.1%
4,COc1ccc(CNS(=O)(=O)NCc2ccccc2F)cc1,4.01%
5,CC(C)CN(CC(C)C)C(=O)COc1ccccc1C(N)=O,7.55%
6,COc1cc(/C=N/n2c(C)nc3ccccc3c2=O)cc(OC)c1O,11%
7,C=CCC(Nc1ccccc1)c1ccc(OC)c(OC)c1 (stereo not shown),0.147%
8,C=CCSc1ncccc1C(=O)NCCc1ccc(Cl)cc1,6.54%
9,COc1ccc(N2C(=O)/C(=C/c3ccco3)C(=O)NC2=S)cc1,24.1%
10,COc1cccc(N2C(=NC(=O)CCC3CCCC3)SC3CS(=O)(=O)CC32)c1 (stereo not shown),7.31%
11,Cc1cc(C)c(C#N)c(SCCN2CCCCC2)n1,-24.6%
12,O=S(=O)(c1ccc(NCc2ccccc2)cc1)N1CCOCC1,15.2%
13,CC1CCCC(NC(=O)COC(=O)[C@@H]2CC(O)CN2S(=O)(=O)c2ccc3c(c2)OCCO3)C1C (stereo partly shown),7.25%
14,CC(C)CC(=O)Nc1c(C(=O)N2CCN(Cc3ccccc3)CC2)oc2ccccc12,-20.9%
15,NNC(=O)CNC(c1ccccc1)c1cc(Cl)ccc1NC(=O)c1ccccc1 (stereo not shown),3.51%
16,COc1cc2sc(C)nc2cc1C,36.8%
17,CCC(C)N(C(=O)c1csnn1)C(C(=O)NC1CCCC1)c1ccccc1F (stereo not shown),-14.8%
18,O=C1/C(=C/c2cccc3ccccc23)CCCc2ccccc21,9.31%
19,CN(C)C(=O)CSc1nc(-c2cccs2)c(-c2cccs2)[nH]1,-3.1%
20,COc1ccc(S(=O)(=O)N2CCOCC2)cc1NC(=O)CSc1ncnc2ccccc12,-50.4%
21,O=C(CNS(=O)(=O)c1ccc(Br)s1)NCCc1ccc(Cl)cc1,23.6%
22,O=C(COC(=O)c1ccc2ncsc2c1)NCc1ccc(F)cc1,-7.29%

row,Compound,"hERG current change (%, negative = inhibition) at 10uM"
1,CCS(=O)(=O)N1CCN(S(=O)(=O)c2ccc(S(=O)(=O)NC3CC3)cc2)CC1,-2.2%
2,COc1ccc(S(=O)(=O)N2CCCCC2)cc1NC(=O)C1CC(=O)N(Cc2ccccc2)C1 (stereo not shown),-44.3%
3,CCN1CCCC1Cn1cnc2c([nH]c3ccc(Cl)cc32)c1=O (stereo not shown),-76.5%
4,Cc1ccc(S(=O)(=O)N2CCC(=O)N(CCOC(=O)Nc3ccc(C)c(C)c3)CC2)cc1,-48.9%
5,COc1ccc(C(C)C)cc1S(=O)(=O)NCCCn1ccnc1,-9.79%
6,C=CCn1c(SCCOc2ccccc2)nnc1C(C)NC(=O)c1ccccc1 (stereo not shown),1.61%
7,CN1C(C(=O)NCc2cccc(Br)c2)CC2Cn3c(nc4ccccc43)C21 (stereo not shown),-67.7%
8,CC(C)C(NC(=O)c1ccco1)C(=O)OCC(=O)Nc1ccc(C(N)=O)cc1 (stereo not shown),6.33%
9,CCOc1nc(Nc2ccc(F)cc2)nc(N2CCN(c3ccc(OC)cc3)CC2)n1,-14.7%
10,O=C1C2C3c4ccccc4C(c4ccccc43)[C@@H]2C(=O)N1c1ccccn1 (stereo partly shown),5.6%
11,COc1ccc(CCNS(=O)(=O)c2cccc3nsnc23)cc1OC,-12.3%
12,CC(C)(C)c1ccc(-c2nc3cc(N)ccc3o2)cc1,20.9%
13,Cc1cc(C)n(-c2nc(SCC(=O)N3CCCC3)c3c4c(sc3n2)CCCC4)n1,-9.29%
14,COc1ccc(-n2cc3ccc([N+](=O)[O-])cc3n2)cc1,7.2%
15,Cc1nnc(SCC(=O)Nc2ccccc2NC(=O)CSc2nnc(C)s2)s1,15.2%
16,COc1ccccc1N(C)S(=O)(=O)c1ccc(C(=O)Nc2nccs2)cc1,-30.5%
17,CC(C)C(C(=O)OCC(=O)c1cccc([N+](=O)[O-])c1)N1C(=O)[C@@H]2[C@H]3CC[C@H](C3)[C@@H]2C1=O (stereo partly shown),-14.5%
18,COc1cccc(CN(C)C(=O)c2cc(-c3cccs3)nc3ccccc23)c1,-2.81%
19,O=C(O)c1cc(O)c2c(c1)C(=O)c1cccc(O)c1C2=O,14.6%
20,O=C(O)c1cccc(NC(=O)c2ccc(S(=O)(=O)c3ccccc3)cc2)c1,0.846%
21,Cc1ccc(Nc2nc(N)c3ccccc3n2)cc1Cl.Cl,9.26%
22,CC(C)C(=O)Nc1nnc(CCc2nnc(NC(=O)C(C)C)s2)s1,8.56%

row,Compound,"hERG current change (%, negative = inhibition) at 10uM"
1,Cc1ccc(S(=O)(=O)NNC(=O)C2Cc3c(ccc4ccccc34)O2)cc1 (stereo not shown),10.1%
2,CCOC(=O)c1ccccc1OCc1cc(/C=N/n2cnnc2)ccc1OC,-13.9%
3,Cc1c(Cc2ccc3c(c2)OCO3)sc(NC(=O)C(C)(C)C)c1C#N,1.1%
4,Cc1ccc(N2C(=O)[C@@H]3C(c4cccnc4)=NO[C@@H]3C2=O)cc1,8.88%
5,Brc1ccc2ncnc(Nc3ccc(N4CCOCC4)cc3)c2c1,-22.5%
6,CCOC(=O)c1c(CNc2ccncc2)n(C)c2cc(Br)c(O)cc12.Cl,18.8%
7,CCCCNC(=S)NNC(=O)c1ccc(Br)o1,12.3%
8,Cc1cc(N=NC(=O)c2ccccc2)ccc1O,4.74%
9,CCc1cc2c(N3CCN(c4ccccc4)CC3)ncnc2s1,-43.5%
10,CC(NS(=O)(=O)c1cn(C)c(=O)n(C)c1=O)c1ccccc1 (stereo not shown),-1.82%
11,Cc1cc(C)n(-c2ccc([N+](=O)[O-])cc2)n1,1.56%
12,COc1cccc(NC(=O)CN(C)C(=O)c2cc(-c3cccc(Br)c3)nc3ccccc23)c1,7.42%
13,CC(=O)Nc1ccc(S(=O)(=O)NCc2ccc3[nH]c(C)cc3c2)cc1,21%
14,O=C(Nc1ccc(C(=O)N2CCCC2)cc1)c1ccccc1F,-4.82%
15,O=C1CCC([N+](=O)[O-])C(c2ccccc2Cl)N1 (stereo not shown),6.99%
16,COc1cccc(C2Nc3ccccc3C(=O)N2Cc2ccccc2)c1 (stereo not shown),-33.5%
17,CCOC(=O)c1c(-c2ccc(C)s2)csc1N,7.8%
18,O=C(Nc1nc2ccccc2c(=O)s1)c1ccc(F)cc1Cl,15.3%
19,COC(=O)c1cccc(-c2noc(-c3ccccc3F)n2)c1,21.5%
20,CC(=O)Nc1nnc(/C=C/c2cccc([N+](=O)[O-])c2)s1,8.33%
21,CC(C)c1ccc(NC(=O)CCCC(=O)NCCc2ccccc2)cc1,-4.28%
22,Cc1cc(C)cc(NS(=O)(=O)c2ccc3c(c2)C(C)(C)C(=O)N3C)c1,-2.14%

row,Compound,"hERG current change (%, negative = inhibition) at 10uM"
1,C=CCOc1ccccc1CN1CCC(n2nccc2NC(=O)C2CCOC2)CC1 (stereo not shown),-21.5%
2,O=S(=O)(NCC1CC1)c1ccc(F)c(Cl)c1,5.18%
3,N#CC1(c2nc3ccccc3[nH]2)CC1c1ccc2c(c1)OCO2 (stereo not shown),0.101%
4,Cc1sc(NC(=O)c2ccccc2)c(C(=O)NCCN(C)C)c1C,-13.8%
5,O=C(CN1CCOCC1)Nc1ccc(F)cc1,2.97%
6,COc1ccccc1NS(=O)(=O)c1ccc2oc(SCc3ccc(C#N)cc3)nc2c1,-0.701%
7,Br.CCCSc1ccc2nc(-c3ccccc3)cn2c1,-9.24%
8,CCOC(=O)c1c(CN2CCN(CC#N)CC2)n(C)c2cc(Br)c(OC)cc12,10.9%
9,C=CCC1(C(=O)N(C)Cc2ccccc2)CCN(C(=O)OC(C)(C)C)CC1,-15.6%
10,CCOc1ccc(CN2CCN(c3ncnc4scc(-c5ccccc5)c34)CC2)cc1,-75.3%
11,Cc1ccc(C)c(-n2cc(CNCCc3cnccn3)c(-c3ccccc3)n2)c1,-67.1%
12,CCO[C@H]1OC(C(=O)NCc2nc3ccccc3[nH]2)=C[C@@H](C2CCCCC2)[C@@H]1CCCO,-4.56%
13,Nc1nc(SCCOc2ccccc2)n[nH]1,4.5%
14,Cc1[nH]c(=O)[nH]c(=O)c1NC(=O)c1ccc(OC(C)C)cc1,8.07%
15,CC(=O)Nc1ccc(OCC(=O)NCc2ccc3c(c2)OCO3)cc1,-3.38%
16,CCOc1cc(/C=C2\C(=N)N3N=C(C)SC3=NC2=O)ccc1OCCOc1ccccc1,4.62%
17,COC(=O)C1=C(c2ccccc2OCc2ccccc2)C[C@@H]2CC[C@H]1N2C(=O)NCCN1CCOCC1,1.62%
18,Cn1c2ccccc2n2c(=O)c(=O)n(CC(=O)N3CCCc4ccccc43)nc12,-15.8%
19,COc1ccc(C(=O)/C=C/Nc2ccc([N+](=O)[O-])cc2)cc1,2.29%
20,CC(C)c1ccc2c(c1)C(c1ccc(N3CCOCC3)cc1)=NNC(c1cccs1)=N2,-4.89%
21,COc1c(C)cc(C(=O)C2CCCN(S(=O)(=O)N(C)C)C2)cc1C (stereo not shown),-66.5%
22,COc1cccc(N2CCN(C(=O)c3cccc(NC4=NC5CS(=O)(=O)CC5S4)c3)CC2)c1 (stereo not shown),10.2%
